Substitutions are numbered along the chain they refer to; changes in the protein carry UniProt numbers. This is one part of the list.

We go through nine molecules from article PMC9911399, “Two distinct binding modes provide the RNA-binding protein RbFox with extraordinary sequence specificity”.

The chains are these.
B1: UGAUUGA (DNA:RNA)
RNA: GGGAGACCGGAAUUCAGAUUGUCCUGAUUGAUUAAAUCCCGUCGUAGCCACCA
DNA 1: CAATCTGAATTCCGGTCTCCC
DNA 2: TGGTGGCTACGACGGGATT
B2: CUAACCA (DNA:RNA)
RNA: B1 RNA with U25C, G26U, U28A, U29C, G30C
DNA 1: CAATCTGAATTCCGGTCTCCC
DNA 2: TGGTGGCTACGACGGGATT
B3: GUCCGUG (DNA:RNA)
RNA: GGGAGACCGGAAUUCAGAUUGUCCGUCCGUGUUAAAUCCCGUCGUAGCCACCA
DNA 1: CAATCTGAATTCCGGTCTCCC
DNA 2: TGGTGGCTACGACGGGATT
B4: UCGCGAG (DNA:RNA)
RNA: B3 RNA with G25U, U26C, C27G, U30A
DNA 1: CAATCTGAATTCCGGTCTCCC
DNA 2: TGGTGGCTACGACGGGATT
B5: UCUAGAC (DNA:RNA)
RNA: B3 RNA with G25U, U26C, C27U, C28A, U30A, G31C
DNA 1: CAATCTGAATTCCGGTCTCCC
DNA 2: TGGTGGCTACGACGGGATT
B6: AUAGGCA (DNA:RNA)
RNA: B3 RNA with G25A, C27A, C28G, U30C, G31A
DNA 1: CAATCTGAATTCCGGTCTCCC
DNA 2: TGGTGGCTACGACGGGATT
B7: CUCAAGG (DNA:RNA)
RNA: B3 RNA with G25C, C28A, G29A, U30G
DNA 1: CAATCTGAATTCCGGTCTCCC
DNA 2: TGGTGGCTACGACGGGATT
B8: CGGAGAC (DNA:RNA)
RNA: B3 RNA with G25C, U26G, C27G, C28A, U30A, G31C
DNA 1: CAATCTGAATTCCGGTCTCCC
DNA 2: TGGTGGCTACGACGGGATT
B9: CCUGCAC (DNA:RNA)
RNA: GGGAGACCGGAAUUCAGAUUGUCCCCUGCACUUAAAUCCCGUCGUAGCCACCA
DNA 1: CAATCTGAATTCCGGTCTCCC
DNA 2: TGGTGGCTACGACGGGATT

For this test, the target named is T1, RBFOX1 RRM (Homo sapiens, UniProt Q9NWB1 109-208).
T1 sequence: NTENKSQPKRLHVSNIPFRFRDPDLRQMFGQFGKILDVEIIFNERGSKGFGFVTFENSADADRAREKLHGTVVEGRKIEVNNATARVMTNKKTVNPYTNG
The test can be described thus: EMSA; HiTS-Eq, 1 nM pool, 10 min; buffer printed only for the single-RNA assays: 10 mM Tris pH 7.5, 150 mM NaCl, 3.4 mM EDTA, 0.001% NP-40, 30 C. As to conditions: tags: His6 N-terminal (pET28a); label: 5' 32P. An outline of the steps: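 Relative association constants, normalised to the cognate motif, were derived by comparing read counts of each RNA species with those of the control reaction. The RNA sequenced was the free fraction, separated by 8% native PAGE after a 10 min equilibration in 50 µL of 1 nM 5′-radiolabelled RNA (7 randomized nucleotides) with increasing concentrations of purified wild-type or mutant RbFox RRM.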
As for B1, the binding signal is 0.028 KA relative to UGCAUGU.
The result for B2 reads 0.00108 KA relative to UGCAUGU; that for B3, 0.0157 KA relative to UGCAUGU; that for B4, 0.0131 KA relative to UGCAUGU.
Turning to B5, the binding signal was 0.00915 KA relative to UGCAUGU.
The figure for B6 is 0.00818 KA relative to UGCAUGU; for B7 it is 0.00694 KA relative to UGCAUGU.
As to B8, the binding signal was 0.0171 KA relative to UGCAUGU.
The result for B9 reads 0.0156 KA relative to UGCAUGU.
